Test results taken from the supplement of paper PMC9151546.
Many values rest on one well or one pass, so single values are uncertain.

Columns and labels:
CHO-K1 [1] = test: micronucleus frequency (% of nucleated events); higher = more micronuclei (genotoxic)
CHO-K1 [2] = test: hypodiploid nuclei frequency (% of nucleated events); higher = more hypodiploid events (aneugenic)
Description: (§1)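 Flow-cytometric in vitro micronucleus assay (Litron MicroFlow) in CHO-K1 cells in 96-well plates, 19 concentrations (4.5-200 µM, n=1 per concentration). Without S9, cells were exposed for 24 h and sampled at 48 h. With Aroclor 1254-induced rat liver S9, cells were exposed for 3-4 h and sampled at 27-28 h. Read-outs are %MN and %hypodiploid nuclei relative to nucleated events, and relative survival as the nuclei-to-bead ratio versus the 1% DMSO vehicle control (x100).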

CHO-K1 [3] = test: relative survival (nuclei to bead ratio vs DMSO control) (% of vehicle control); higher = more surviving cells
Description: as §1
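For hypodiploid nuclei frequency (% of nucleated events) in this document: hypodiploid nuclei gated on a flow cytometer with 488 nm excitation after SYTOX Green staining, cultures at 37 °C, positive controls vinblastine without S9 and cyclophosphamide with S9.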
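For micronucleus frequency (% of nucleated events) in this document: cells lysed with nuclei stained by SYTOX Green, then micronucleus-gated events counted against nucleated events by flow cytometry with 488 nm excitation.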
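For relative survival (nuclei to bead ratio vs DMSO control) in this document: Lysed-cell nuclei stained with SYTOX Green and counted against counting beads by flow cytometry at 488 nm excitation, with vinblastine (no S9) and cyclophosphamide (plus S9) as positive controls.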

Nc1ccc(Cc2ccc(N)cc2)cc1 [4,4'-Methylenedianiline]
Conditions	hypodiploid nuclei frequency, CHO-K1 [2] [%]	micronucleus frequency, CHO-K1 [1] [%]	relative survival, CHO-K1 [3]
concentration: 4.5 (µM), S9 metabolic activation: with S9, exposure time: 3-4 hours	0.14	0.5	54.8
concentration: 4.5 (µM), S9 metabolic activation: without S9, exposure time: 24 hours	0.32	1.1	103
concentration: 5.63 (µM), S9 metabolic activation: with S9, exposure time: 3-4 hours	0.34	0.6	67
concentration: 5.63 (µM), S9 metabolic activation: without S9, exposure time: 24 hours	0.48	0.94	112
concentration: 7.04 (µM), S9 metabolic activation: with S9, exposure time: 3-4 hours	0.18	0.86	74.2
concentration: 7.04 (µM), S9 metabolic activation: without S9, exposure time: 24 hours	0.52	1.16	97
concentration: 8.8 (µM), S9 metabolic activation: with S9, exposure time: 3-4 hours	0.1	0.6	77.6
concentration: 8.8 (µM), S9 metabolic activation: without S9, exposure time: 24 hours	0.28	1.18	122
concentration: 11 (µM), S9 metabolic activation: with S9, exposure time: 3-4 hours	0.2	0.86	75.1
concentration: 11 (µM), S9 metabolic activation: without S9, exposure time: 24 hours	0.72	1.28	118
concentration: 13.7 (µM), S9 metabolic activation: with S9, exposure time: 3-4 hours	0.26	0.9	73.1
concentration: 13.7 (µM), S9 metabolic activation: without S9, exposure time: 24 hours	0.54	1.46	118
concentration: 17.2 (µM), S9 metabolic activation: with S9, exposure time: 3-4 hours	0.18	0.62	72.9
concentration: 17.2 (µM), S9 metabolic activation: without S9, exposure time: 24 hours	0.26	0.96	107
concentration: 21.5 (µM), S9 metabolic activation: with S9, exposure time: 3-4 hours	0.16	0.74	77.4
concentration: 21.5 (µM), S9 metabolic activation: without S9, exposure time: 24 hours	0.58	1	152
concentration: 26.8 (µM), S9 metabolic activation: with S9, exposure time: 3-4 hours	0.26	1.24	83.3
concentration: 26.8 (µM), S9 metabolic activation: without S9, exposure time: 24 hours	0.52	1.28	125
concentration: 33.6 (µM), S9 metabolic activation: with S9, exposure time: 3-4 hours	0.24	0.78	85.8
concentration: 33.6 (µM), S9 metabolic activation: without S9, exposure time: 24 hours	0.48	1.4	117
concentration: 41.9 (µM), S9 metabolic activation: with S9, exposure time: 3-4 hours	0.2	1.08	83.3
concentration: 41.9 (µM), S9 metabolic activation: without S9, exposure time: 24 hours	0.32	0.88	113
concentration: 52.4 (µM), S9 metabolic activation: with S9, exposure time: 3-4 hours	0.18	0.96	81.8
concentration: 52.4 (µM), S9 metabolic activation: without S9, exposure time: 24 hours	0.52	0.64	87.9
concentration: 65.5 (µM), S9 metabolic activation: with S9, exposure time: 3-4 hours	0.22	0.96	75.8
concentration: 65.5 (µM), S9 metabolic activation: without S9, exposure time: 24 hours	0.62	1.3	101
concentration: 81.9 (µM), S9 metabolic activation: with S9, exposure time: 3-4 hours	0.28	0.82	90
concentration: 81.9 (µM), S9 metabolic activation: without S9, exposure time: 24 hours	0.82	1	119
concentration: 102 (µM), S9 metabolic activation: with S9, exposure time: 3-4 hours	0.3	0.92	81.2
concentration: 102 (µM), S9 metabolic activation: without S9, exposure time: 24 hours	1.02	1.06	108
concentration: 128 (µM), S9 metabolic activation: with S9, exposure time: 3-4 hours	0.2	0.72	110
concentration: 128 (µM), S9 metabolic activation: without S9, exposure time: 24 hours	0.74	1	112
concentration: 160 (µM), S9 metabolic activation: with S9, exposure time: 3-4 hours	0.1	0.98	102
concentration: 160 (µM), S9 metabolic activation: without S9, exposure time: 24 hours	1.08	1.3	105
concentration: 200 (µM), S9 metabolic activation: with S9, exposure time: 3-4 hours	0.2	0.7	108
concentration: 200 (µM), S9 metabolic activation: without S9, exposure time: 24 hours	1.18	2.02	85.9

Nc1ccc(Oc2ccc(N)cc2)cc1 [4,4'-Oxydianiline]
Conditions	hypodiploid nuclei frequency, CHO-K1 [2] [%]	micronucleus frequency, CHO-K1 [1] [%]	relative survival, CHO-K1 [3]
concentration: 4.5 (µM), S9 metabolic activation: with S9, exposure time: 3-4 hours	0.4	3.48	79.2
concentration: 4.5 (µM), S9 metabolic activation: without S9, exposure time: 24 hours	0.88	2.22	95.1
concentration: 5.63 (µM), S9 metabolic activation: with S9, exposure time: 3-4 hours	0.3	3.36	77.4
concentration: 5.63 (µM), S9 metabolic activation: without S9, exposure time: 24 hours	1	2	86
concentration: 7.04 (µM), S9 metabolic activation: with S9, exposure time: 3-4 hours	0.44	2.98	87.1
concentration: 7.04 (µM), S9 metabolic activation: without S9, exposure time: 24 hours	0.84	2.1	78.8
concentration: 8.8 (µM), S9 metabolic activation: with S9, exposure time: 3-4 hours	0.78	3.62	84.7
concentration: 8.8 (µM), S9 metabolic activation: without S9, exposure time: 24 hours	1.34	1.5	98.3
concentration: 11 (µM), S9 metabolic activation: with S9, exposure time: 3-4 hours	0.32	2.34	88.4
concentration: 11 (µM), S9 metabolic activation: without S9, exposure time: 24 hours	1.08	3.08	86.4
concentration: 13.7 (µM), S9 metabolic activation: with S9, exposure time: 3-4 hours	0.54	2.98	89.8
concentration: 13.7 (µM), S9 metabolic activation: without S9, exposure time: 24 hours	1.08	2.16	93.4
concentration: 17.2 (µM), S9 metabolic activation: with S9, exposure time: 3-4 hours	0.36	2.32	90.8
concentration: 17.2 (µM), S9 metabolic activation: without S9, exposure time: 24 hours	1.3	1.58	103
concentration: 21.5 (µM), S9 metabolic activation: with S9, exposure time: 3-4 hours	0.4	2.86	83.4
concentration: 21.5 (µM), S9 metabolic activation: without S9, exposure time: 24 hours	1.22	1.74	102
concentration: 26.8 (µM), S9 metabolic activation: with S9, exposure time: 3-4 hours	0.32	1.98	101
concentration: 26.8 (µM), S9 metabolic activation: without S9, exposure time: 24 hours	1.54	3.22	86.7
concentration: 33.6 (µM), S9 metabolic activation: with S9, exposure time: 3-4 hours	0.44	2.8	92.7
concentration: 33.6 (µM), S9 metabolic activation: without S9, exposure time: 24 hours	1.28	2.68	88.6
concentration: 41.9 (µM), S9 metabolic activation: with S9, exposure time: 3-4 hours	0.52	2.54	99.5
concentration: 41.9 (µM), S9 metabolic activation: without S9, exposure time: 24 hours	1.12	1.8	80.3
concentration: 52.4 (µM), S9 metabolic activation: with S9, exposure time: 3-4 hours	0.4	1.9	90.5
concentration: 52.4 (µM), S9 metabolic activation: without S9, exposure time: 24 hours	1.42	2.52	90.1
concentration: 65.5 (µM), S9 metabolic activation: with S9, exposure time: 3-4 hours	0.32	2.5	86.8
concentration: 65.5 (µM), S9 metabolic activation: without S9, exposure time: 24 hours	1.3	2.72	79.7
concentration: 81.9 (µM), S9 metabolic activation: with S9, exposure time: 3-4 hours	0.24	2.57	71.3
concentration: 81.9 (µM), S9 metabolic activation: without S9, exposure time: 24 hours	1.74	3.22	68.6
concentration: 102 (µM), S9 metabolic activation: with S9, exposure time: 3-4 hours	0.28	2.74	97
concentration: 102 (µM), S9 metabolic activation: without S9, exposure time: 24 hours	1.6	4	74.8
concentration: 128 (µM), S9 metabolic activation: with S9, exposure time: 3-4 hours	0.3	2	103
concentration: 128 (µM), S9 metabolic activation: without S9, exposure time: 24 hours	2.32	3.68	63.1
concentration: 160 (µM), S9 metabolic activation: with S9, exposure time: 3-4 hours	0.28	2.08	98.1
concentration: 160 (µM), S9 metabolic activation: without S9, exposure time: 24 hours	2.3	3.42	69.3
concentration: 200 (µM), S9 metabolic activation: with S9, exposure time: 3-4 hours	0.34	1.76	87.7
concentration: 200 (µM), S9 metabolic activation: without S9, exposure time: 24 hours	2.2	3.84	46.3

C[C@]12CCC(=O)C=C1CC[C@@H]1[C@@H]2CC[C@]2(C)C(=O)CC[C@@H]12 [4-Androstene-3,17-dione]
Conditions	hypodiploid nuclei frequency, CHO-K1 [2] [%]	micronucleus frequency, CHO-K1 [1] [%]	relative survival, CHO-K1 [3]
concentration: 4.5 (µM), S9 metabolic activation: with S9, exposure time: 3-4 hours	0.3	2.3	82.1
concentration: 4.5 (µM), S9 metabolic activation: without S9, exposure time: 24 hours	1.06	1.96	89.4
concentration: 5.63 (µM), S9 metabolic activation: with S9, exposure time: 3-4 hours	0.42	1.51	61
concentration: 5.63 (µM), S9 metabolic activation: without S9, exposure time: 24 hours	0.94	2	95.7
concentration: 7.04 (µM), S9 metabolic activation: with S9, exposure time: 3-4 hours	0.42	2.08	84.7
concentration: 7.04 (µM), S9 metabolic activation: without S9, exposure time: 24 hours	1.1	2.34	98.5
concentration: 8.8 (µM), S9 metabolic activation: with S9, exposure time: 3-4 hours	0.22	1.72	71.1
concentration: 8.8 (µM), S9 metabolic activation: without S9, exposure time: 24 hours	1.02	1.38	104
concentration: 11 (µM), S9 metabolic activation: with S9, exposure time: 3-4 hours	0.46	1.54	81.7
concentration: 11 (µM), S9 metabolic activation: without S9, exposure time: 24 hours	0.96	1.26	85.2
concentration: 13.7 (µM), S9 metabolic activation: with S9, exposure time: 3-4 hours	0.46	1.78	63.9
concentration: 13.7 (µM), S9 metabolic activation: without S9, exposure time: 24 hours	1.06	1.58	94.8
concentration: 17.2 (µM), S9 metabolic activation: with S9, exposure time: 3-4 hours	0.26	1.88	72.9
concentration: 17.2 (µM), S9 metabolic activation: without S9, exposure time: 24 hours	1.34	2.3	117
concentration: 21.5 (µM), S9 metabolic activation: with S9, exposure time: 3-4 hours	0.36	1.56	106
concentration: 21.5 (µM), S9 metabolic activation: without S9, exposure time: 24 hours	1.12	2.14	92.6
concentration: 26.8 (µM), S9 metabolic activation: with S9, exposure time: 3-4 hours	0.38	2.34	76.8
concentration: 26.8 (µM), S9 metabolic activation: without S9, exposure time: 24 hours	1.66	1.58	70.2
concentration: 33.6 (µM), S9 metabolic activation: with S9, exposure time: 3-4 hours	0.3	1.34	65.6
concentration: 33.6 (µM), S9 metabolic activation: without S9, exposure time: 24 hours	1.72	1.88	75.4
concentration: 41.9 (µM), S9 metabolic activation: with S9, exposure time: 3-4 hours	0.3	2.52	76.8
concentration: 41.9 (µM), S9 metabolic activation: without S9, exposure time: 24 hours	1.5	1.92	75.1
concentration: 52.4 (µM), S9 metabolic activation: with S9, exposure time: 3-4 hours	0.44	1.92	63.6
concentration: 52.4 (µM), S9 metabolic activation: without S9, exposure time: 24 hours	1.5	1.7	79.5
concentration: 65.5 (µM), S9 metabolic activation: with S9, exposure time: 3-4 hours	0.7	1.54	79.8
concentration: 65.5 (µM), S9 metabolic activation: without S9, exposure time: 24 hours	1.96	1.94	64
concentration: 81.9 (µM), S9 metabolic activation: with S9, exposure time: 3-4 hours	0.5	2.52	60.5
concentration: 81.9 (µM), S9 metabolic activation: without S9, exposure time: 24 hours	2.02	1.92	62.4
concentration: 102 (µM), S9 metabolic activation: with S9, exposure time: 3-4 hours	0.6	1.82	65.3
concentration: 102 (µM), S9 metabolic activation: without S9, exposure time: 24 hours	2.04	2.06	66.3
concentration: 128 (µM), S9 metabolic activation: with S9, exposure time: 3-4 hours	0.58	2.08	72.1
concentration: 128 (µM), S9 metabolic activation: without S9, exposure time: 24 hours	2.1	2.42	57.5
concentration: 160 (µM), S9 metabolic activation: with S9, exposure time: 3-4 hours	0.16	1.88	79
concentration: 160 (µM), S9 metabolic activation: without S9, exposure time: 24 hours	1.54	1.24	49.8
concentration: 200 (µM), S9 metabolic activation: with S9, exposure time: 3-4 hours	0.48	2.35	59.7
concentration: 200 (µM), S9 metabolic activation: without S9, exposure time: 24 hours	1.72	1.98	41.9
